Reference: PubChem BioAssay AID1671194 (National Center for Advancing Translational Sciences (NCATS), 2021)
Out of some 140,000 compounds screened, about 240 (0.17%) were called active. Inconclusive means that the source gave no clear call. Such entries were picked first, then a sample of the others. The call rests on the fitted dose curve; in most records, active means well fitted inhibition curve with a large enough effect; inconclusive means small, poorly fitted or top-dose-only effect; inactive means no such curve, though single readings can be large or run the other way. Potencies beside an inconclusive call are fits to weak or partial responses and may not hold up.

Assay: Primary qHTS assay for inhibitors of alpha-synuclein gene (SNCA) expression; further: nearly all actives have a fitted effect of over 45% in size
Details: HEK-293 SNCA-luciferase knock-in, luminescence, 24 h; series mostly up to 57.2 µM
Potency means the concentration at half of the fitted maximal effect; tags describe the fitted curve by direction and shape.

| Structure (SMILES) | Potency |
| --- | --- |
| O=C(N[C@H]1CCN2C(=O)N(c3cccc4nsnc34)C(=O)[C@@H]2C1)c1ccc(F)c(Cl)c1 | inconclusive: 7.08 µM [inhibitor, single point] |
| COc1cccc(CCC(=O)N2CC(F)(F)C[C@H]2c2nc(C)no2)c1 | inconclusive: 8.91 µM [inhibitor, single point] |
| O=C(c1ccc2oc(-c3cccc(F)c3)nc2c1)N1CCCCC1CCO (stereo unspecified) | inactive |
| O=C(Cc1c[nH]c2ncc(-c3cccc(CO)c3)cc12)NCc1cccnc1 | inactive |
| Cc1cccc2c1-c1sc(C(=O)NCc3ccccc3Cl)cc1CO2 | inconclusive: 2.24 µM [inhibitor, full curve, poor fit] |
| COc1ccc(-c2nc3cnccn3c2NCCC(=O)Nc2ccc(C)cc2C)cc1 | inactive |
| O=C(Nc1ccc(F)c(F)c1)c1cc2n(n1)CC(c1ccc(Cl)cc1)OC2 (stereo unspecified) | inactive |
| COc1ccc(C(=O)N2CCC3(C2)C(=NC2CCCCC2)NC(=O)N3c2cc(F)cc(F)c2)cc1 (stereo unspecified) | inconclusive: 0.708 µM [inhibitor, full curve, poor fit] |
| Cc1cccc(-n2ccnc2SCC(=O)Nc2ccccc2C(F)(F)F)c1 | inconclusive: 25.1 µM [inhibitor, single point] |
| CCn1ncc(NC(=O)Cn2ncc3cc(-c4ccc(F)cc4F)ccc32)n1 | inactive |
| COc1ccc(CCNC(=O)c2ccc(CS(=O)(=O)c3ccc(C)cc3)o2)cc1OC | inconclusive: 14.1 µM [inhibitor, partial curve, poor fit] |
| Cc1oc(-c2cccc(C(F)(F)F)c2)nc1CN(C)Cc1cnn(C)c1 | inconclusive: 7.08 µM [inhibitor, full curve, poor fit] |
| Cc1ccc(-c2cnc([C@@H]3COCCN3Cc3ccncc3)[nH]2)cc1 | inconclusive: 56.2 µM [inhibitor, single point] |
| COc1ccc(OC)c(CCNC(=O)CCCc2nnc3n(C)c(=O)c4sccc4n23)c1 | inconclusive: 31.6 µM [inhibitor, single point] |
| Cn1cc(C(NS(=O)(=O)c2cccc3c2OCCO3)C2CC(O)C2)cn1 (stereo unspecified) | inconclusive: 5.62 µM [inhibitor, full curve, poor fit] |
| CS(=O)(=O)N1CCCN(Cc2cn[nH]c2C(=O)O)CC1 | inactive |
| COc1ccc(-c2cc(C(=O)NCC3CC3)c3c(C4CCCN4)noc3n2)cc1 (stereo unspecified) | inactive |
| COc1cccc([S+](=O)([O-])N2CCCC3(CC(c4ccccc4)=NO3)C2)c1 (stereo unspecified) | inconclusive: 5.62 µM [inhibitor, partial curve, poor fit] |
| CN1C(=O)CO[C@H]2CN(c3ccc(C#N)cn3)C[C@H]21 | inconclusive: 31.6 µM [inhibitor, single point] |
| COCC1(CNCc2cn(C)c3ccccc23)C[C@@H](O)[C@@H](O)C1 (stereo partly specified) | inactive |
| CC(C)c1ccc(NS(=O)(=O)c2ccc3[nH]cc(C(=O)NC4CCCCC4)c(=O)c3c2)cc1 | inconclusive: 39.8 µM [inhibitor, single point] |

| Structure (SMILES) | Potency |
| --- | --- |
| Cn1ncc2c(C(=O)NCc3ccc(Cl)cc3)cc(-c3ccc(F)cc3)nc21 | inconclusive: 22.4 µM [inhibitor, single point] |
| CC(=O)N1CC2(CCN(CC3CCCCC3)C2)Cc2ccccc21 (stereo unspecified) | inconclusive: 11.2 µM [inhibitor, partial curve, poor fit] |
| O=C(CC1CCCC1)N1CC[C@@]2(O)CCN(Cc3ccccn3)C[C@H]2C1 | inactive |
| Cc1nn(-c2ccccn2)c(C)c1[C@@H]1C=C[C@@H](NC(=O)CSCC(=O)O)C1 | inactive |
| Cc1nn2c(c1-c1ccccc1Oc1ccccc1)N(CC1CC1)CCC2 | inconclusive: 11.2 µM [inhibitor, full curve, poor fit] |
| COc1ccc(-n2c(-c3ccc(Cl)cc3)cc3c2CC(C)(C)CC3=O)c(OC)c1 | inconclusive: 31.6 µM [inhibitor, single point] |
| Cn1cc(CNC(=O)C[C@@H]2C[C@H]3O[C@H](CNC(=O)NC4CCC4)[C@@H](O)[C@H]3O2)cn1 | inconclusive: 4.47 µM [inhibitor, single point] |
| CS(=O)(=O)N(Cc1ccccn1)C1CN(C(=O)NCCc2ccccc2)C1 | inactive |
| CN(CCO)C[C@@H]1CN(C(=O)c2nc3ccccc3[nH]c2=O)C[C@@H]1CO | inconclusive: 39.8 µM [inhibitor, partial curve, poor fit] |
| O=C(NCCN[S+](=O)([O-])c1ccccc1)c1cccc(-c2ccc(C(F)(F)F)cc2)c1 | inconclusive: 39.8 µM [inhibitor, single point] |
| O=C(CCC1CCCN(S(=O)(=O)c2cccc(F)c2)C1)Nc1ccc(F)cc1 (stereo unspecified) | inconclusive: 39.8 µM [inhibitor, single point] |
| COc1ccc(CCNC(=O)c2ccc3c(c2)nc2n3CCOC2)cc1OC | inconclusive: 20 µM [inhibitor, partial curve, poor fit] |
| COc1ccc(-c2ccc3c(n2)CN(Cc2ccccc2F)C(=O)CO3)cc1OC | inconclusive: 12.6 µM [inhibitor, full curve, poor fit] |
| COCCn1ccc2c(C3=CCOCC3)nc(-c3cccc4[nH]ccc34)cc21 | inactive |
| Cc1cc2oc(C(=O)Nc3cccc(-c4nc5ccccc5o4)c3)c(C)c2cc1Cl | inconclusive: 39.8 µM [inhibitor, single point] |
| O=C(c1ccco1)N1CC[C@@H]2[C@@H](CCC(=O)N2CCc2ccccn2)C1 | inactive |
| CC(C)Cc1cc(C[C@@H]2C[C@H](NC3CCOCC3)C2(C)C)no1 | inactive |
| O=C(c1ccc(Cl)cc1)N1CC2(CCCN(C3COC3)C2)Cc2ccccc21 (stereo unspecified) | inconclusive: 39.8 µM [inhibitor, single point] |
| Cc1ccc(C(=O)COC(=O)C(Cc2c[nH]c3ccccc23)NC(=O)c2ccc(Br)cc2)cc1 (stereo unspecified) | inconclusive: 7.08 µM [inhibitor, single point] |
| COc1ccc(-c2cc(N3CCCC(NC(=O)c4cc(C)ccc4C)C3)n[nH]2)cc1 (stereo unspecified) | inconclusive: 1.41 µM [inhibitor, partial curve, poor fit] |
